Like-named read-outs stand apart in the source and are kept apart here. Some results were stated once for a whole list of compounds, not compound by compound.
Biological target: T1, RORγ (UniProt P51449)
T1 construct: hRORg-LBD aa259-518 NP_005051.2; hRORgt aa1-497 NP_001001523 (RORg, t isoform, 497aa); mRORg-LBD aa264-516 NP_035411
T1 sequence (P51449 1-518): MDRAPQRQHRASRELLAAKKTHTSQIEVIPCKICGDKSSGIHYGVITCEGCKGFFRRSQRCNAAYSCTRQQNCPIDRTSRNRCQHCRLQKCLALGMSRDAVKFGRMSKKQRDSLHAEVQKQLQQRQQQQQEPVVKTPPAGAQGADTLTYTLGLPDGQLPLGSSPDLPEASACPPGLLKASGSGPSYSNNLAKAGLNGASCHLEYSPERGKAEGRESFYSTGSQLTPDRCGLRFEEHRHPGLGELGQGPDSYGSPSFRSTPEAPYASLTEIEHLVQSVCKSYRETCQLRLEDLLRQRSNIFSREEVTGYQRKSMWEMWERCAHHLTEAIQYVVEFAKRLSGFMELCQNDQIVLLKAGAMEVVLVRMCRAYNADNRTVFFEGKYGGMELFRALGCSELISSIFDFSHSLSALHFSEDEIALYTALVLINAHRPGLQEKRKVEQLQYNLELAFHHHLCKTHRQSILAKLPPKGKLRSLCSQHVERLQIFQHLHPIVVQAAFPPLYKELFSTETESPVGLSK
Assay: RORγ Gal4 Reporter Gene Assay in 293T cells
Type: cell-based

[1] = firefly luciferase, Table 4, read-out: RORγ activity in the Gal4 reporter gene assay, firefly (IC50 FF), Group
[2] = renilla normalised luciferase, Table 5, read-out: RORγ activity in the Gal4 reporter gene assay, renilla normalised (IC50 RENnorm), Group

| IC50 [1] | IC50 [2] | Structure (SMILES) |
| --- | --- | --- |
| < 500 nM | < 500 nM | COc1ccccc1S(=O)(=O)N1Cc2ccccc2COC[C@H]1Cc1ccccc1 [1/2] |
| < 500 nM | < 500 nM | N#Cc1ccccc1S(=O)(=O)N1Cc2ccccc2COCC1Cc1ccccc1 (stereo not shown) [1/4] |
| < 500 nM | < 500 nM | COc1ccc(F)cc1S(=O)(=O)N1Cc2ccccc2COCC1Cc1ccccc1 (stereo not shown) [1/5] |
| < 500 nM | < 500 nM | COc1ccc(Cl)cc1S(=O)(=O)N1Cc2ccccc2COCC1Cc1ccccc1 (stereo not shown) [1/6] |
| 500 to 2000 nM | 500 to 2000 nM | COc1ccc(OC)c(S(=O)(=O)N2Cc3ccccc3COCC2Cc2ccccc2)c1 (stereo not shown) [1/7] |
| < 500 nM | < 500 nM | O=S(=O)(c1cccc2c1OCC2)N1Cc2ccccc2COCC1Cc1ccccc1 (stereo not shown) [1/9] |
| < 500 nM | < 500 nM | O=S(=O)(c1cccc2nonc12)N1Cc2ccccc2COCC1Cc1ccccc1 (stereo not shown) [1/10] |
| > 2000 nM | > 2000 nM | O=S(=O)(c1c(Cl)ccc2nonc12)N1Cc2ccccc2COCC1Cc1ccccc1 (stereo not shown) [1/11] |
| < 500 nM | < 500 nM | O=S(=O)(c1cccc2nsnc12)N1Cc2ccccc2COCC1Cc1ccccc1 (stereo not shown) [1/12] |
| 500 to 2000 nM | > 2000 nM | Cc1ccc2nsnc2c1S(=O)(=O)N1Cc2ccccc2COCC1Cc1ccccc1 (stereo not shown) [1/13] |
| < 500 nM | < 500 nM | O=S(=O)(c1ccccc1F)N1Cc2ccccc2COCC1Cc1ccccc1 (stereo not shown) [1/14] |
| < 500 nM | 500 to 2000 nM | O=S(=O)(c1ccccc1Cl)N1Cc2ccccc2COCC1Cc1ccccc1 (stereo not shown) [1/15] |
| 500 to 2000 nM | 500 to 2000 nM | O=S(=O)(c1cccc(Cl)c1F)N1Cc2ccccc2COCC1Cc1ccccc1 (stereo not shown) [1/16] |
| 500 to 2000 nM | 500 to 2000 nM | Cc1c(F)cccc1S(=O)(=O)N1Cc2ccccc2COCC1Cc1ccccc1 (stereo not shown) [1/17] |
| < 500 nM | < 500 nM | O=S(=O)(c1cc(Cl)ccc1F)N1Cc2ccccc2COCC1Cc1ccccc1 (stereo not shown) [1/18] |
| 500 to 2000 nM | 500 to 2000 nM | N#Cc1ccc(Cl)cc1S(=O)(=O)N1Cc2ccccc2COCC1Cc1ccccc1 (stereo not shown) [1/19] |
| 500 to 2000 nM | 500 to 2000 nM | Cc1ccc(Cl)cc1S(=O)(=O)N1Cc2ccccc2COCC1Cc1ccccc1 (stereo not shown) [1/20] |
| > 2000 nM | 500 to 2000 nM | O=S(=O)(c1cccc(Cl)c1Cl)N1Cc2ccccc2COCC1Cc1ccccc1 (stereo not shown) [1/21] |
| < 500 nM | < 500 nM | O=S(=O)(c1c(F)cccc1F)N1Cc2ccccc2COCC1Cc1ccccc1 (stereo not shown) [1/22] |
| > 2000 nM | > 2000 nM | O=S(=O)(c1c(Cl)cccc1Cl)N1Cc2ccccc2COCC1Cc1ccccc1 (stereo not shown) [1/23] |
| 500 to 2000 nM | 500 to 2000 nM | O=S(=O)(c1cc(C(F)(F)F)ccc1F)N1Cc2ccccc2COCC1Cc1ccccc1 (stereo not shown) [1/24] |

| IC50 [1] | IC50 [2] | Structure (SMILES) |
| --- | --- | --- |
| > 2000 nM | 500 to 2000 nM | O=S(=O)(c1ccccc1C(F)(F)F)N1Cc2ccccc2COCC1Cc1ccccc1 (stereo not shown) [1/25] |
| 500 to 2000 nM | 500 to 2000 nM | CS(=O)(=O)c1ccccc1S(=O)(=O)N1Cc2ccccc2COCC1Cc1ccccc1 (stereo not shown) [1/26] |
| 500 to 2000 nM | 500 to 2000 nM | COc1cccc(S(=O)(=O)N2Cc3ccccc3COCC2Cc2ccccc2)c1 (stereo not shown) [1/28] |
| 500 to 2000 nM | – | COc1ccc(S(=O)(=O)N2Cc3ccccc3COCC2Cc2ccccc2)cc1 (stereo not shown) [1/29] |
| > 2000 nM | – | Cc1nc(S(=O)(=O)N2Cc3ccccc3COCC2Cc2ccccc2)cn1C (stereo not shown) [1/30] |
| 500 to 2000 nM | – | Cn1cnc(S(=O)(=O)N2Cc3ccccc3COCC2Cc2ccccc2)c1Cl (stereo not shown) [1/31] |
| > 2000 nM | > 2000 nM | COc1ccccc1S(=O)(=O)N1Cc2ccc(F)cc2COCC1Cc1ccccc1 (stereo not shown) [1/35] |
| – | < 500 nM | COc1cccc(CC2COCc3ccccc3CN2S(=O)(=O)c2cccc3cccnc23)c1 (stereo not shown) [1/38] |
| > 2000 nM | – | COc1cccc(-c2cccc(CC3COCc4ccccc4CN3S(=O)(=O)c3ccccc3OC)c2)n1 (stereo not shown) [5/6] |
| > 2000 nM | > 2000 nM | O=S(=O)(c1cccc2cccnc12)N1Cc2ccccc2COC[C@H]1Cn1cncn1 [17/1] |
| > 2000 nM | > 2000 nM | O=S(=O)(c1cccc2cccnc12)N1Cc2ccccc2COC[C@H]1CN1CCC(O)CC1 [17/3] |
| < 500 nM | < 500 nM | COc1ccccc1S(=O)(=O)N1Cc2ccccc2COCC1Cc1ccccc1 (stereo not shown) [Preparative Example 1, 4-Benzyl-5-(2-methoxyphenylsulfonyl)-3,4,5,6-tetrahydro-1H-benzo[f][1,4]-oxazocine] |
| > 2000 nM | > 2000 nM | O=S(=O)(c1cc(F)ccc1OCCN1CCOCC1)N1Cc2ccccc2COCC1Cc1ccccc1 (stereo not shown) [Preparative Example 11] |
| – | > 2000 nM | CC(C)(O)C[C@@H]1COCc2ccccc2CN1S(=O)(=O)c1cccc2cccnc12 [Preparative Example 22, (R)-2-Methyl-1-(5-(quinolin-8-ylsulfonyl)-3,4,5,6-tetrahydro-1H-benzo[f][1,4]oxazocin-4-yl)propan-2-ol] |
| – | > 2000 nM | NC(=O)C[C@@H]1COCc2ccccc2CN1S(=O)(=O)c1cccc2cccnc12 [Preparative Example 23, (R)-2-(5-(Quinolin-8-ylsulfonyl)-3,4,5,6-tetrahydro-1H-benzo[f][1,4]oxazocin-4-yl)acetamide] |
| – | > 2000 nM | N#CC[C@@H]1COCc2ccccc2CN1S(=O)(=O)c1cccc2cccnc12 [Preparative Example 24, (R)-2-(5-(Quinolin-8-ylsulfonyl)-3,4,5,6-tetrahydro-1H-benzo[f][1,4]oxazocin-4-yl)acetonitrile] |
| – | > 2000 nM | O=S(=O)(c1cccc2cccnc12)N1Cc2ccccc2COC[C@H]1Cc1nnn[nH]1 [Preparative Example 25, (R)-4-((1H-Tetrazol-5-yl)methyl)-5-(quinolin-8-ylsulfonyl)-3,4,5,6-tetrahydro-1H-benzo[f][1,4]oxazocine] |
| > 2000 nM | > 2000 nM | COc1ccccc1S(=O)(=O)N1Cc2ccccc2OCCC1Cc1ccccc1 (stereo not shown) [compound 4] |
| > 2000 nM | > 2000 nM | O=S(=O)(c1cc(F)ccc1N1CCOCC1)N1Cc2ccccc2COCC1Cc1ccccc1 (stereo not shown) [compound 12] |
| > 2000 nM | > 2000 nM | O=S(=O)(c1cccc2cccnc12)N1Cc2cccc(O)c2COCC1Cc1ccccc1 (stereo not shown) [compound 13] |

Source: patent US8940722B2, “Compounds for modulation of orphan nuclear receptor RAR-related orphan receptor-gamma (RORγ, NR1F3) activity and for the treatment of chronic inflammatory and autoimmune disease” (Phenex Pharmaceuticals AG, priority 2010, dated 2015)
